Data: the supplement of paper PMC10126150
Sequences with one replicate were seen in a single cluster, so their values are uncertain.

Tested on: ATP
Assay: switch fluorescence ratio, 500 uM ATP over buffer (Cy3 cluster intensity, sum of 5 cycles each) (fold (ratio)); higher = stronger signal-on switching upon ATP binding; sequences stand for … in TCGTCGGCAGCGTCAGATGTGTATAAGAGACAGTTTTTTTTTTTTTTTTTTTTTTTTT…TC
Conditions: aptamer strand: ATP DNA aptamer (quencher-CACCTGGGGGAGTATTGCGGAGGAAGG + anchor), 100 nM annealed; ATP concentration: 500 uM; one replicate
Procedure, shortened: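 Between each of five buffer/ATP cycles, the flow-cell was stripped with NaOH and re-annealed. Each cycle imaged Cy3-labelled switching-strand clusters, annealed to 100 nM quencher-labelled ATP aptamer on a modified Illumina MiSeq flow-cell, first in selection buffer and then after 15 min with 500 uM ATP at 22 °C. The fluorescence ratio is summed target-cycle over summed buffer-cycle Cy3 intensity per cluster, averaged per switch-domain sequence, with clusters outside 100-1000 RFU excluded.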
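Note: ATP exposure 15 min at 22 °C before imaging.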

Sequence | switch fluorescence ratio
CTTCATCAAA | 2.66
ATCCGTGCGG | 1.01
AAGTTAAGTT | 1.02
CTACGCCCCG | 1.08
CGGCTCAGGT | 1.03
CTAGGGAGTG | 0.977
GAGCCGGTGC | 0.983
TTATTATCTT | 1.02
GAGGGCCCCT | 1.35
AAATGTGACC | 1.05
GATCGGCGTT | 1
CGGGATATAC | 2.26
TATGTCTTGC | 1.02
GATAACACGG | 1.05
GAGAGTAACA | 1.01
ACGGATAAG | 1.09
CAACCAACGC | 1.44
ATAAAGATTA | 0.96
CAAGGGTCTA | 1.03
ATGGGGTTCA | 0.971
AACAATCCTG | 1.01
CGACACTGTG | 0.974
GTAAACTTAC | 1.18
CTAGTGTGG | 0.966
TGTGCACGAA | 1.04
ATCATATACG | 1.03

Sequence | switch fluorescence ratio
CGCTAGTAGG | 1.01
ATATCATGGC | 1.03
TTCGGGTGCG | 1.07
CGGGGCAATT | 1.49
CAATCTACGA | 1.05
GGGGGACGG | 1.04
GAGTTTCACA | 1.02
CCGGCGATG | 1.04
CGTTTACTTG | 1.03
TACCCCAAAC | 1.25
CCGGGACCGT | 1
TATAGCCAGC | 0.985
GTGGCTCATG | 0.975
GGAGAGTCGT | 0.99
TGTAAGTGAC | 1.13
AGCAAGTAAT | 1.07
ATAATACTTC | 1.12
TCACATTGTC | 1
ACCTAGTG | 1.02
TGTTTCTGT | 0.998
TGATAATAG | 1.01
AACTAGCCTC | 1.06
CAGAGTGAT | 1.46
AAAAGCGGCT | 1.11
ATCAATCGGG | 1.04
GGTACTTGCT | 0.968

Sequence | switch fluorescence ratio
GCGATCGTCA | 0.954
TTGAGTGGGG | 0.994
ACGCACCTAT | 1.37
CAATTCAGGT | 1.02
CGTTCAGGTT | 1.05
TCGTTAACGG | 0.99
TAATTGTATA | 0.994
GGAGCCGGTA | 0.964
GAGGAGCTT | 1.08
GACGGTATGG | 0.972
CGCCTTATTT | 0.98
AATCAGTGCA | 0.975
GGGTCTAGTA | 1.01
AGTTAGGCGA | 1
CTAGTTAACA | 1.01
CAAGTTGTCA | 1.03
ACCTGTTGAA | 0.994
TCCGAGCCGT | 1.06
GGGGACCGCC | 1.07
CAGCTGATCG | 1.01
GTCGCTGTG | 1.02
TTTGCCTTCA | 1.42
GATCGAGCTT | 0.99
CTCGGGGGTG | 0.964
GTCATTTTGT | 0.985
ATTAGGGTGT | 1.05

Sequence | switch fluorescence ratio
ATGCGGTCCA | 0.967
ATTAGGACT | 0.973
TGTTAGTTGT | 0.999
GATCGGAGTT | 0.992
CGTATTATAT | 1
GGTTAGGTTG | 0.97
GACAAGTAGT | 1.01
TATTAGTGTT | 0.996
TTAAGTCGTC | 1.04
TCCAAAGTG | 1.07
CACGGTTGCT | 0.994
AGAGTGCTGT | 0.978
AAATGTGTCC | 0.918
CATATCTTAT | 0.972
AGACCCCAAA | 1.04
CCCTCTTGG | 1.03
GCCGATGTAG | 0.986
AATTATAAAA | 1
GGTAGGATTA | 1.03
TGCGCGCGTA | 0.977
ACGTGCTATT | 1.01
ACGACGTTGT | 1.03
GACTGAGCGT | 1
ACAAATACTC | 1.61
GCTGAAGAGC | 1.02
TAAATTGTAA | 0.996

Sequence | switch fluorescence ratio
TCAGGCACTG | 0.995
TATCGTCGAG | 0.968
ATCGCCGGTA | 0.973
ATCCGAGA | 2.68
GAGGCATGTG | 1.02
GCTAAGAGTA | 0.98
TTCTGTTATG | 1.05
AAGGGGCTCG | 0.951
CGGGACAACC | 1.04
AAGCAAATTG | 1.04
TAAGGAATAA | 0.976
GTTCACTCAA | 0.959
TTGGATCACA | 0.976
ACACGCGCTG | 1.02
AAACCGAGTT | 1.03
CTGGGCTGAT | 1.03
CGACATCCGA | 1.06
AAGCCTGCTT | 0.974
GTCTGTGGGG | 0.986
GCAAGATTTG | 1
GTTCGGCTTT | 1.04
TAGAGGTGGC | 0.963
TATTTCCGAA | 1.03
TTCATCTGAA | 0.993
GCTCACAGAG | 1.02
ACTGCTAGCG | 1.01

Sequence | switch fluorescence ratio
TCCATGAGCT | 0.978
GGGCTAACGT | 1.04
TTACGCTTGG | 1.01
GGGCATGGGG | 1.02
AGGTCGGACT | 1
TTTTAGCACA | 1.1
AGGTTGATAG | 0.985
TTTATCAAGG | 0.985
CGTTGTTTGC | 1.02
CAAACTCGAA | 0.995
CAGGCTGCTG | 0.993
GTAACGCGCA | 1.07
CCACGAGACG | 1.01
AGAACAGTTT | 0.939
CTAACGCCCG | 1.07
CAAATTATAT | 1.02
CGGCTTCATA | 0.999
CCTCCTTCTG | 1.12
CATGGAAATC | 1.02
TCAGTGATTT | 1.12
GATTTGGCAA | 0.996
ATATGTGTAA | 0.995
CTAGTTTCAT | 1
